From PubChem BioAssay AID588579 (National Center for Advancing Translational Sciences (NCATS), 2011)
Values joined by “and” are separate entries in the source; they are usually repeats but may differ in a detail not shown here. Equal entries are not always repeated. Hit rate of the full screen: of about 400,000 compounds, about 2,200 (0.55%) were called active. The inconclusive results got no clear call from the source; some entries with a clear call stand among them for comparison. The call rests on the fitted dose curve; in most records, active means well fitted inhibition curve with a large enough effect; inconclusive means small, poorly fitted or top-dose-only effect, or another doubt; inactive means no such curve, though single readings can be large or run the other way. Potencies beside an inconclusive call are fits to weak or partial responses and may not hold up.
Potency means the concentration at half of the fitted maximal effect; tags describe the fitted curve by direction and shape.

The compounds below were run against DNA polymerase kappa (Homo sapiens) (UniProt Q9UBT6) (assay: qHTS for Inhibitors of Polymerase Kappa). Details: purified Pol kappa, fluorescent DNA synthesis assay, 10 min; series mostly up to 107 µM.
UniProt Q9UBT6, sequence (Q9UBT6 whole entry, looked up): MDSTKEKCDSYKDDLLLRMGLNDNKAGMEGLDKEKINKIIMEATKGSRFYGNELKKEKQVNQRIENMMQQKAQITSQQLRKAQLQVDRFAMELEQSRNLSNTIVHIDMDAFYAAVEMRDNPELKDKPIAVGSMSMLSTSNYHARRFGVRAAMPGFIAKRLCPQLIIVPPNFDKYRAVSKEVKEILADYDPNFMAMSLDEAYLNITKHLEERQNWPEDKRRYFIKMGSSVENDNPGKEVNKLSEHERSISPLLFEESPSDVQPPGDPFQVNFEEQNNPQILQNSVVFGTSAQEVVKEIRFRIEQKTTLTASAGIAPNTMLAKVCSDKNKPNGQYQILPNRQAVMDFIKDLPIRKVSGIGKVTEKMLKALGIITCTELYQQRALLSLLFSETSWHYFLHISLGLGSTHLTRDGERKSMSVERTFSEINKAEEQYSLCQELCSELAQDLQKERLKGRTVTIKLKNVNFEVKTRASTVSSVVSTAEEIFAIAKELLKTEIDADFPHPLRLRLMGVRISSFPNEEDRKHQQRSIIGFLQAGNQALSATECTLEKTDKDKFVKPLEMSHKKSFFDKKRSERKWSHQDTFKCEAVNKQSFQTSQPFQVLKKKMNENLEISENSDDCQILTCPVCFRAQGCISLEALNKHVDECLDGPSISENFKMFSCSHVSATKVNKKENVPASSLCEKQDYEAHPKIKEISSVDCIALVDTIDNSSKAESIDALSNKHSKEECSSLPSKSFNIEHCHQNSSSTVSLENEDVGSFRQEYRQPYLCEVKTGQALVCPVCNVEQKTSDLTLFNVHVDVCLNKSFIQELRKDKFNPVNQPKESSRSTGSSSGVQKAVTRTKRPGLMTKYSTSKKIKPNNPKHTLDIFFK
In short: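 50 nM final substrate added after 15 min RT preincubation of 10 nM Pol kappa with compound; fluorescence read at 0 and 10 min.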
For O=C(O)C/C(=C\c1ccc(N2CCOCC2)c([N+](=O)[O-])c1)c1nc2ccccc2s1, the Potency was inconclusive: 100 µM [inhibitor, single point].
CC(Sc1c[nH]c2ccccc12)C(=O)O (stereo unspecified) was tested, and the Potency was inconclusive: 31.6 µM [inhibitor, partial curve, poor fit].
With CC(=O)Nc1ccc(OCc2cccc([N+](=O)[O-])c2)cc1 the Potency was inconclusive: 79.4 µM [inhibitor, partial curve].
With CC(=O)Oc1ccc2c(=O)c(Oc3ccccc3)coc2c1OC(C)=O the Potency was active: 14.1 µM.
In the case of COc1cc2nc(N3CCCN(C)CC3)nc(NC3CCN(Cc4ccccc4)CC3)c2cc1OC, the Potency is reported as inconclusive: 37.7 µM [inhibitor, partial curve, poor fit].
In the case of CC(=O)COC(=O)C1CCN(S(=O)(=O)c2cc([N+](=O)[O-])ccc2Cl)CC1, the Potency is reported as inconclusive: 79.4 µM [inhibitor, single point].
CCOc1ccc(NC(=O)CC2Nc3cccc4cccc(c34)NC2=O)cc1 (stereo unspecified) was tested, and the Potency was inconclusive: 50.1 µM [inhibitor, partial curve, poor fit].
For Cn1c2ccccc2c(=O)c2cc(C#CC3=CCCCC3)ccc21, the Potency was inconclusive: 56.2 µM [inhibitor, partial curve, poor fit].
With COc1ccc(-c2nc3ccc(NC(C)=O)cc3c(=O)n2Cc2cccc(Cl)c2)cc1COc1ccc(NC(C)=O)cc1 the Potency was inconclusive: 89.1 µM [inhibitor, single point].
In the case of COC(=O)c1sc(NC(=O)c2ccc(Cn3cc(Cl)cn3)o2)c(C#N)c1C, the Potency is reported as inconclusive: 89.1 µM [inhibitor, single point].
C#CCOCCOCCOCCNc1nc(N2CCN(C(=O)Cn3cc(CCCCN)nn3)CC2)nc(N2CCN(C(=O)Cn3cc(CCCN=C(N)N)nn3)CC2)n1 was tested, and the Potency was inconclusive: 56.2 µM [inhibitor, partial curve, poor fit].
CCNc1ncc2nc(-c3ccc(OC)cc3)c(=O)n(CCC#N)c2n1 was tested, and the Potency was inconclusive: 0.891 µM [inhibitor, partial curve, poor fit].
For Cc1ccccc1N1CC(C(=O)Nc2nnc(SCc3cccnc3)s2)CC1=O (stereo unspecified), the Potency was “inactive”.
For C/C(=N\NC(=O)Cn1nnc2ccccc21)c1ccco1, the Potency was “inactive”.
In the case of N#C/C(=C/c1cccn1-c1cccc(C(=O)O)c1)c1ccc(Cl)cc1, the Potency is reported as inconclusive: 89.1 µM [inhibitor, single point].
For O=S(=O)(c1ccc(Cl)cc1)N1CCN(c2nc(-c3cccs3)nc3ccccc23)CC1, the Potency was inconclusive: 100 µM [inhibitor, single point].
In the case of CC1=C(C(=O)Nc2cccc(Cl)c2)C2(CCCCCC2)OC1=O, the Potency is reported as “inactive”.
O=C1C=CC2=C3c4cc(O)c(O)cc4CC3(O)COC2=C1O (stereo unspecified) was tested, and the Potency was active: 282 nM and active: 79.4 nM and active: 1.12 µM.
For CN(CCC#N)C(=O)COC(=O)c1c2c(nc3ccccc13)/C(=C\c1ccco1)CC2, the Potency was active: 22.4 µM.
COc1ccc(N2CCN(c3oc(-c4ccccc4C)nc3S(=O)(=O)c3ccccc3)CC2)cc1 was tested, and the Potency was “inactive”.
O=C(NCc1nc2ccccc2[nH]1)c1ccc(Cl)c(S(=O)(=O)N2CCCC2)c1 was tested, and the Potency was inconclusive: 89.1 µM [inhibitor, partial curve, poor fit].
In the case of CCC(CC)C(=O)Nc1cccc(-c2nc3ncccn3c2C)c1, the Potency is reported as “inactive”.
CCc1ccc(OCC(=O)Nc2ccc(-c3nc4ccccc4o3)c(O)c2)cc1 was tested, and the Potency was “inactive”.
CCN(CC)c1ccc(N=C2C=CC(=O)C=C2NC(C)=O)cc1 was tested, and the Potency was inconclusive: 11.2 µM [inhibitor, partial curve, poor fit].
For CCOC(=O)c1ccc(NC(=O)c2cccc3c(=O)c4c([nH]c23)CCCC4)cc1, the Potency was “inactive”.
COc1ccc(NC(=O)Cn2ccn(Cc3ccccc3)c(=O)c2=O)cc1Cl was tested, and the Potency was “inactive”.
In the case of C=C(C)C(=O)Nc1ccc(OC(F)(F)C(F)F)c(NC(=O)C(=C)C)c1, the Potency is reported as inconclusive: 89.1 µM [inhibitor, single point].
In the case of CC(=O)c1sc(NC(=O)c2ccc(Cn3cc(Br)cn3)o2)nc1C, the Potency is reported as inconclusive: 89.1 µM [inhibitor, single point].
For CCC(=O)Nc1cc(-c2nc3cc(C)cc(C)c3o2)ccc1C, the Potency was “inactive”.
For Cc1ccc(C(=O)N/N=C/c2cccc(OC(=O)/C=C/c3ccco3)c2)cn1, the Potency was “inactive”.
With Cn1cc(C(=O)N2CCN(c3cccc(Cl)c3)CC2)c(=O)c2cc(S(=O)(=O)N3CCCC3)ccc21 the Potency was “inactive”.
With CCNc1ccc2noc3c2c1C(=O)c1ccccc1-3 the Potency was active: 25.1 µM.
With CCCCOC(=O)c1cc2c(cn1)[nH]c1ccccc12 the Potency was inconclusive: 5.01 µM [inhibitor, partial curve, poor fit].
With COc1cc(-c2noc(-c3nnn(-c4ccc(Cl)cc4)c3C)n2)cc(OC)c1OC the Potency was “inactive”.
Cc1ccc(C)c(SCC(=O)OCC(=O)c2ccco2)c1 was tested, and the Potency was inconclusive: 44.7 µM [inhibitor, full curve, poor fit].
For Cc1cc(C)c(C(=O)/C=C/c2ccco2)c(=O)[nH]1, the Potency was inconclusive: 89.1 µM [inhibitor, single point].
For CCOC(=O)c1cc2c(=O)n3ccccc3nc2n(Cc2ccco2)c1=NC(=O)c1ccccc1OC, the Potency was inconclusive: 89.1 µM [inhibitor, single point].
With CC(/C=C/C=C(\C)C(=O)O[C@@H]1O[C@H](CO[C@@H]2O[C@H](CO)[C@@H](O)[C@H](O)[C@H]2O)[C@@H](O)[C@H](O)[C@H]1O)=C\C=C\C=C(C)\C=C\C=C(/C)C(=O)O[C@@H]1O[C@H](CO[C@@H]2O[C@H](CO)[C@@H](O)[C@H](O)[C@H]2O)[C@@H](O)[C@H](O)[C@H]1O the Potency was active: 21.2 µM.
Cc1cc(=O)oc2cc(OCC(=O)NC(Cc3c[nH]c4ccc(O)cc34)C(=O)O)c(Cl)cc12 (stereo unspecified) was tested, and the Potency was inconclusive: 79.4 µM [inhibitor, single point].
For Cc1c(Cl)c(C(F)F)nn1CC(=O)NC1C(=O)N2C(C(=O)O)=C(CSc3nnnn3C)CSC12 (stereo unspecified), the Potency was inconclusive: 89.1 µM [inhibitor, single point].
In the case of Cc1ccsc1C(=O)Nc1ccc(C(=O)O)cc1, the Potency is reported as “inactive”.
In the case of O=C1CCc2cc(-c3csc(-c4ccc(O)cc4)n3)ccc2N1, the Potency is reported as inconclusive: 89.1 µM [inhibitor, partial curve, poor fit].
O=C(O)/C=C/c1ccc2c(c1)S(=O)(=O)N(C1CCCC1)[C@H]2CC(=O)O was tested, and the Potency was inconclusive: 63.1 µM [inhibitor, partial curve, poor fit].
With Nc1ccc(Nc2ccccc2)c(S(=O)(=O)O)c1 the Potency was active: 79.4 µM.
With CCOC(=O)c1c(/N=C/c2ccc(OC)cc2O)sc2c1CCN(C)C2 the Potency was inconclusive: 79.4 µM [inhibitor, partial curve, poor fit].
With CCN(CC)CCn1c2ccccc2c2nc3ccccc3nc21 the Potency was inconclusive: 79.4 µM [inhibitor, single point].
With CC1(C)OC(=O)C(=CNC(=O)c2c(F)cccc2F)C(=O)O1 the Potency was inconclusive: 89.1 µM [inhibitor, single point].
With CNC(=S)N/N=C/c1ccc(-c2ccc(C(=O)O)cc2)o1 the Potency was inconclusive: 100 µM [inhibitor, partial curve, poor fit].
O=C(N/N=C/C(Br)=C/c1ccccc1)c1n[nH]c2c1CCC2 was tested, and the Potency was inconclusive: 89.1 µM [inhibitor, single point].
In the case of N#Cc1nc(COc2ccccc2Cl)oc1NCc1cccnc1, the Potency is reported as inconclusive: 89.1 µM [inhibitor, partial curve, poor fit].
For S=c1[nH]nc(-c2ccccc2)n1CC1CCCO1 (stereo unspecified), the Potency was “inactive”.
For Cc1cccc2cc3c(nc12)SC(=NCC1CCCO1)N(Cc1ccco1)C3 (stereo unspecified), the Potency was inconclusive: 100 µM [inhibitor, single point].
Cn1c(C(=O)NCc2ccc(F)cc2)cc2cc(S(=O)(=O)N3CCCCC3)ccc21 was tested, and the Potency was “inactive”.
In the case of Cc1cccc(NC(=S)N(CCCN2CCOCC2)C(C)c2cc3ccccc3o2)c1C (stereo unspecified), the Potency is reported as “inactive”.
CNC(=O)c1ccsc1NC(=O)c1sc2ccccc2c1Cl was tested, and the Potency was inconclusive: 56.2 µM [inhibitor, partial curve, poor fit].
In the case of O=C(NCc1ccccc1Cl)c1cnc(N2CCCCC2)c2ccccc12, the Potency is reported as “inactive”.
C/C(=N\N1CCN(C)CC1)c1ccc(Cl)c(Cl)c1 was tested, and the Potency was inconclusive: 89.1 µM [inhibitor, partial curve, poor fit].
In the case of CC(=O)c1c(C)oc(C)c1CSCc1ccc(C(=O)O)o1, the Potency is reported as active: 31.6 µM.
With Cc1ccc(-c2cc(C(=O)N/N=C/c3ccc([N+](=O)[O-])o3)c3ccccc3n2)o1 the Potency was inconclusive: 89.1 µM [inhibitor, partial curve, poor fit].
With COc1cccc(CNC(=S)Nc2cc(C)ccc2C)c1 the Potency was inconclusive: 89.1 µM [inhibitor, partial curve, poor fit].
CCOc1ccc(NS(=O)(=O)c2ccc3[nH]cc(C(=O)NCC4CCCO4)c(=O)c3c2)cc1 (stereo unspecified) was tested, and the Potency was “inactive”.
For Cc1ccc(Cn2c(=S)[nH]c3ccc(N4CCOCC4)cc3c2=O)o1, the Potency was inconclusive: 39.8 µM [inhibitor, partial curve].
COC(=O)c1ccc(CC(=O)c2c(C)cc(O)cc2O)o1 was tested, and the Potency was active: 25.1 µM.
CC(=O)c1cccc(NC(=O)c2cc3c(s2)-c2c(C)cccc2OC3)c1 was tested, and the Potency was “inactive”.
With COc1ccccc1NC(=O)CSc1sc2c(O)cc(=O)[nH]c2c1C#N the Potency was active: 50.1 µM.
CC(C)(C)N(Cc1ccccc1)C(=O)COC(=O)c1ccc([N+](=O)[O-])o1 was tested, and the Potency was “inactive”.
